Source: the supplement of paper PMC4604168 (melanoma cell lines)
The other results are listed elsewhere or left out. Most values come without repeats; read them as rough.

What was measured:
Test in all cases: cell count relative to DMSO control; melanoma cells; higher = more viable cells
Details in all cases: library dose: standard library concentration; 72 h
SkMel28 = tested on: SkMel28
SkMel2 = tested on: SkMel2
SkMel30 = tested on: SkMel30
SkMel5 = tested on: SkMel5
UACC257 = tested on: UACC257
UACC62 = tested on: UACC62
WM115 = tested on: WM115
WM1716 = tested on: WM1716
WM1745 = tested on: WM1745
WM3526 = tested on: WM3526
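Further: cells treated in 1,536-well plates, then fixed and DAPI-stained, with nuclei counted from automated high-throughput microscope images.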

Compound	cell count (SkMel28) [%]	cell count (SkMel2) [%]	cell count (SkMel30) [%]	cell count (SkMel5) [%]	cell count (UACC257) [%]	cell count (UACC62) [%]	cell count (WM115) [%]	cell count (WM1716) [%]	cell count (WM1745) [%]	cell count (WM3526) [%]
Cc1cn(-c2cc(NC(=O)c3ccc(C)c(Nc4nccc(-c5cccnc5)n4)c3)cc(C(F)(F)F)c2)cn1 [nilotinib] + OCc1c[nH]c2ccccc12 [Indole-3-carbinol] (first compound 1 µM, partner dose 4 µM)	78.7	69.5	73.2	67.7	108	65.6	89.1	99.4	108	70
COc1ccc(C2=N[C@@H](c3ccc(Cl)cc3)[C@@H](c3ccc(Cl)cc3)N2C(=O)N2CCNC(=O)C2)c(OC(C)C)c1 [Nutlin-3] + O=C(O)c1ccc(-c2c[nH]c3ncc(-c4ccccc4)cc23)cc1C1CCCC1 [GSK650394] (first compound 0.5 µM, partner dose 0.8 µM)	51.9	65.6	84.5	56.2	59.9	56.7	62.1	64.5	110	70.8
COc1ccc(C2=N[C@@H](c3ccc(Cl)cc3)[C@@H](c3ccc(Cl)cc3)N2C(=O)N2CCNC(=O)C2)c(OC(C)C)c1 [Nutlin-3] + CN(C)S(=O)(=O)c1ccc2c(c1)/C(=C/c1cc3c([nH]1)CCCC3)C(=O)N2 [SU6656] (first compound 0.5 µM, partner dose 2 µM)	58	92.5	105	83.1	75.1	74.3	67.7	78.2	68.7	81.7
Cn1c(=O)n(-c2ccc(C(C)(C)C#N)cc2)c2c3cc(-c4cnc5ccccc5c4)ccc3ncc21 + Cn1nnc2c(C(N)=O)ncn2c1=O [temozolomide] (first compound 0.02 µM, partner dose 10 µM)	32.7	69.3	60.7	86.6	107	67.3	73	54.5	95.9	74.8
CC(C)C[C@H](NC(=O)[C@H](Cc1ccccc1)NC(=O)c1cnccn1)B(O)O [Bortezomib] + Cc1cc(N2CCOCC2)cc2[nH]c(-c3c(NC[C@@H](O)c4cccc(Cl)c4)cc[nH]c3=O)nc12 [BMS536924] (first compound 0.005 µM, partner dose 1 µM)	36.2	51.3	35.5	22.4	72.7	63.2	28.9	22.4	18.5	30.4
CC(C)C[C@H](NC(=O)[C@H](Cc1ccccc1)NC(=O)c1cnccn1)B(O)O [Bortezomib] + C[C@@H](Oc1cc(-c2cnn(C3CCNCC3)c2)cnc1N)c1c(Cl)ccc(F)c1Cl [Crizotinib] (first compound 0.005 µM, partner dose 1 µM)	24.5	56.7	25.5	19.7	71.6	57.5	24.8	14.6	29.7	20.8
Cc1cc(Nc2cc(N3CCN(C)CC3)nc(/C=C/c3ccccc3)n2)n[nH]1 + Clc1ccc(Nc2nnc(Cc3ccncc3)c3ccccc23)cc1 [vatalanib] (first compound 0.2 µM, partner dose 10 µM)	51	80.4	80.8	72.7	78.2	62.2	52.6	78	58	68.4
Cc1cc(Nc2cc(N3CCN(C)CC3)nc(/C=C/c3ccccc3)n2)n[nH]1 + Cc1cc(N2CCOCC2)cc2[nH]c(-c3c(NC[C@@H](O)c4cccc(Cl)c4)cc[nH]c3=O)nc12 [BMS536924] (first compound 0.2 µM, partner dose 1 µM)	48.9	74.4	94.6	67.7	93.7	62.2	51.6	87.8	33.6	69.5
Cn1c(=O)n(-c2ccc(C(C)(C)C#N)cc2)c2c3cc(-c4cnc5ccccc5c4)ccc3ncc21 + C=C(c1ccc(C(=O)O)cc1)c1cc2c(cc1C)C(C)(C)CCC2(C)C [Bexarotene] (first compound 0.02 µM, partner dose 10 µM)	38.4	62.7	65.4	81.8	92.8	60.8	73.4	78.3	73.4	58.8
Cc1cc(Nc2cc(N3CCN(C)CC3)nc(/C=C/c3ccccc3)n2)n[nH]1 + O=C(Nc1cccc(Cl)c1)Nc1ncc(CCNc2ncnc3ccsc23)s1 [SNS314] (first compound 0.2 µM, partner dose 0.004 µM)	28.5	91.3	107	94	65.5	80.2	33.5	51	57.1	77.7
